Assay results as given in PubChem BioAssay AID686970 (National Center for Advancing Translational Sciences (NCATS), 2013).
Among all 360,000 compounds or so, about 6,000 (1.7%) were called active. Inconclusive results, whose numbers are uncertain, are shown with a selection of clear calls. The call rests on the fitted dose curve; in most records, active means well fitted cell-killing curve with a large enough effect; inconclusive means small, poorly fitted or top-dose-only effect, or effect the other way; inactive means flat fitted curve, though single readings scatter. Potencies of inconclusive entries are left out as doubtful fits.

Assay: qHTS for induction of synthetic lethality in tumor cells producing 2HG: qHTS for the HT-1080-NT fibrosarcoma cell line;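 further: NT is the 2HG producing partner of a matched IDH1 knockdown line; nearly all actives have a fitted effect of over 55% in size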;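 on activity, negative = less viability: 0% = DMSO-treated cells and -100% = media-only wells without cells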
Settings: HT-1080-NT fibrosarcoma viability, CellTiter-Glo ATP luminescence, 48 h; activity, negative = less viability: at 46.1 µM (top of the series) unless noted
Summary of the method: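 Viability by CellTiter-Glo luminescence after 48 h compound exposure at 37C of HT-1080-NT cells (750/well, RPMI, 5% FBS). % activity scaled between DMSO wells and medium-only wells, then curve-fitted and categorized by curve class.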
Potency means the concentration at half of the fitted maximal effect; tags describe the fitted curve by direction and shape.

Compound	activity, negative = less viability	Potency
CC(C)C(=O)NCC(c1ccc2c(c1)OCO2)N1CCOCC1 (stereo unspecified)	inactive: -0.396%	
CSc1ccccc1NC(=O)CN(C)CC(=O)Nc1c(F)cccc1F	inactive: -4.32%	
COC(=O)c1ccc(CO/N=C/c2ccc(OC)cc2)o1	inactive: -1.3%	
CCc1ccc(-n2cc(-c3ccc(F)cc3)[n+]3c2SCCC3)cc1		inconclusive [cytotoxic, partial curve, poor fit]
O=C(Nc1cccc(-c2cccc(Cl)c2)c1)C1CCN(Cc2ccon2)CC1		inconclusive [cytotoxic, single point]
O=C1C(=C(c2ccccc2)c2ccccc2)Nc2ccccc21		inconclusive [cytotoxic, partial curve]
CN(C)S(=O)(=O)c1cc(NC(=O)C2=COCCO2)ccc1Cl	inactive: 12.8%	
C=C1C(=O)[C@]23C[C@H]1CCC2[C@@]1(C)C(C[C@@H]3O)[C@](C)(C(=O)OC)CC[C@@H]1OC(C)=O (stereo partly specified)		active: 2.59 µM
COc1ccc(OC)c(S(=O)(=O)N2CCN(C(=O)CCc3ccccc3)CC2)c1	inactive: -5.42%	
O=C(CSc1nc(-c2ccco2)cc(C(F)(F)F)n1)Nc1ccccc1C(F)(F)F		inconclusive [cytotoxic, partial curve]
Cc1[nH]nc(-c2ccc(O)cc2O)c1-c1nc2ccccc2s1		inconclusive [cytotoxic, partial curve]
O=C(/C=C/c1ccccc1)c1ccccn1		inconclusive [cytotoxic, single point]
C#CC[N+]1(CC#Cc2cccc3ccccc23)CCOCC1	inactive: -21%	
O=C1C(=Cc2ccccc2Cl)CCc2ccccc21		inconclusive [cytotoxic, single point]
CCn1c(C(=O)NCc2ccccc2Br)cc2oc3ccccc3c21	inactive: -18.2%	
CCOc1cc(CNCCCN2CCOCC2)cc(Br)c1OCc1ccccc1Cl		active: 7.31 µM
COc1cc(/C=N/Nc2nn3cnnc3c3ccccc23)ccc1O		inconclusive [cytotoxic, partial curve]
CN1CCN(C(=O)c2ccc3c(c2)NC(=O)/C(=C/c2ccccc2)S3)CC1		inconclusive [cytotoxic, single point]
COc1ccc(C2C=CC(=O)CC2)c(OC)c1 (stereo unspecified)		inconclusive [cytotoxic, single point]
CC(=O)Oc1ccc(OC(C)=O)c(SCCCCCN2CCOCC2)c1		inconclusive [cytotoxic, single point]
CCn1nc(NC(=O)c2ccco2)c2cc3ccc(C)cc3nc21		inconclusive [cytotoxic, single point]
Cc1cc(=O)n2[nH]c(C)c(-c3ccc(Cl)cc3)c2n1		inconclusive [cytotoxic, partial curve]
CCCn1c2ccccc2c2cnn(CC(=O)O)c(=O)c21	inconclusive: 31.2%	
COc1ccc(N(C(=O)c2ccccc2C)S(=O)(=O)c2cccs2)cc1		active: 0.92 µM

Compound	activity, negative = less viability	Potency
Cc1ccnc(NC(=O)c2ccc3c(c2)OCO3)c1		inconclusive [cytotoxic, single point]
Cc1ccc2[nH]cc(/C=C/c3cc[n+](C)cc3)c2c1		inconclusive [cytotoxic, partial curve]
COc1ccccc1NC(=O)Nc1nc(C(N)CC(C)C)cs1 (stereo unspecified)	inactive: -5.55%	
O=C(COc1ccccc1)Nc1nc2cc3c(cc2s1)OCO3		inconclusive [cytotoxic, single point]
CCCCN1C(=O)C(O)(CC(=O)c2ccco2)c2cc(Br)ccc21 (stereo unspecified)		inconclusive [cytotoxic, single point]
Cc1ccc(C(=O)N/C(=C\c2ccc(Br)cc2)c2nc(=S)[nH][nH]2)cc1		inconclusive [cytotoxic, single point]
CCOC(=O)c1c(C)n(C)c2ccc(OC)c(NC(=O)CN3CCC(C(=O)OCC)CC3)c12	inactive: 13%	
NS(=O)(=O)c1ccc(CNC(=O)c2ccccn2)cc1		inconclusive [rising, single point]
COc1ccc(NC(=O)CCCc2nc3ccccc3c(=O)[nH]2)cc1Cl	inactive: -0.259%	
Cc1cccc(CCN(Cc2cc3cccc(C)c3[nH]c2=O)C(=O)N2CCOCC2)c1	inactive: -5.51%	
COC(=O)c1ccc(NC(=O)Cn2c([N+](=O)[O-])cnc2C)cc1	inactive: 8.69%	
CC(C)(C)c1ccc(-n2ncc3c2CCCC3NC(=O)CCN2CCCCC2=O)cc1 (stereo unspecified)		inconclusive [cytotoxic, single point]
C/C(=N/NC(=O)c1cc2ccccc2cc1O)c1ccco1		inconclusive [cytotoxic, single point]
CC(C)(C)c1cc(C(=O)O)nn1-c1ccccc1		inconclusive [rising, single point]
CCCCN(CC)CCCNC(=O)c1cc2c(=O)n(CC)c3ccccc3c2s1		active: 18.4 µM
Cc1ccc2c(c1)N(CCC(=O)NC(C)C)C(=O)CO2	inconclusive: 34.6%	
COc1ccc(Br)cc1CN1CCN(C(=O)c2ccc(F)cc2)CC1	inactive: -6.07%	
NC(Cc1ccc(Cl)cc1)c1csc(NC(=O)Nc2ccccc2)n1 (stereo unspecified)		active: 23.1 µM
COc1ccc(C2c3ccc4ccccc4c3Oc3ncn(CCCO)c(=N)c32)cc1 (stereo unspecified)		active: 18.4 µM
O=C(CC1C(=O)NCCN1C(=O)Nc1ccccc1)Nc1cc(Cl)cc(Cl)c1 (stereo unspecified)		active: 16.4 µM
Cc1ccccc1Cn1nc(C)c(NC(=O)c2noc3c2CCCC3)c1C		inconclusive [cytotoxic, single point]
Cc1ccc(C(=O)Nc2c(-c3cccs3)c(=O)c3ccccc3n2C)cc1		inconclusive [cytotoxic, single point]
COc1c(Cl)cc(Cl)cc1/C=C/C(=O)c1ccc(NC(=O)c2cccs2)cc1		active: 20.6 µM
COc1ccc(/C=N/NC(=O)c2cccc3ccccc23)c(OC)c1OC		inconclusive [cytotoxic, single point]

Compound	activity, negative = less viability	Potency
COCCn1c(C)cc(C(=O)CN2C(=O)NC3(CCCCCCC3)C2=O)c1C	inactive: -1.43%	
CCOc1ccc(C(=O)Cc2cc3cccc(OC)c3oc2=O)cc1		inconclusive [cytotoxic, single point]
COc1ccc(-n2cc(CNC3CCC(O)CC3)c(-c3cccc(F)c3)n2)cc1 (stereo unspecified)		inconclusive [cytotoxic, single point]
COc1ccc(-c2nc3ccc(Br)cn3c2Cc2ccccc2C(F)(F)F)cc1OC		inconclusive [cytotoxic, single point]
CC(=O)C1CCC2C(CCC3=CC(=O)CCC32)C1 (stereo unspecified)	inactive: 7.53%	
CC1CCN(c2ccc(-c3ccc(NC(=O)C(F)(F)F)cc3)nn2)CC1		inconclusive [cytotoxic, partial curve]
O=C1NC[C@@H](CCCCN2C[C@H](Cc3ccccc3)N(CCC3CCCCC3)C(=O)C2=O)N(CCc2ccccc2)C1=O		inconclusive [cytotoxic, single point]
O=C(Nc1cccc(F)c1)C1CCCCC1		inconclusive [rising, single point]
CC(=O)Nc1ccc(/C=C2\CCc3ccccc3C2=O)cc1		active: 23.1 µM
COC(=O)c1ccccc1NC(=O)C1CCCN(S(C)(=O)=O)C1 (stereo unspecified)	inactive: -5.17%	
CCOc1ccc(-c2ccc(SC)nn2)cc1		active: 16.4 µM
C#CCOCCOCCOCCNc1nc(N2CCN(C(=O)CCCCCCCCCCNC(=O)Cn3cc(C[C@@H](C)O)nn3)CC2)nc(N2CCN(C(=O)CCCCCCCCCCNC(=O)[C@@H](CCSC)n3cc(CCO)nn3)CC2)n1		inconclusive [cytotoxic, single point]
CCn1c(=O)c(C(=O)Nc2ccccc2S(N)(=O)=O)c(O)c2ccccc21		inconclusive [cytotoxic, single point]
CS(=O)(=O)N1CCc2cc(-c3csc(NC(=O)C(c4ccccc4)c4ccccc4)n3)ccc21		inconclusive [rising, single point]
COc1cc(C(=O)N2CCN(c3cc(Cl)ccc3Cl)CC2)cc(OC)c1OC		active: 1.3 µM
COc1ccc(C(CCNCc2ccccc2)c2ccc(F)cc2)cc1 (stereo unspecified)		inconclusive [cytotoxic, partial curve]
O=C1CC(N(CCc2ccccc2)C(=S)Nc2ccccc2)C(=O)N1c1ccccc1 (stereo unspecified)		inconclusive [cytotoxic, single point]
C[C@H](CO)N1C[C@H](C)[C@H](CN(C)Cc2ccc(-c3ccccc3)cc2)Oc2ccc(NS(=O)(=O)c3ccccc3)cc2CC1=O		inconclusive [cytotoxic, single point]
O=C(c1cccs1)N1N=C(c2ccc(O)cc2)CC1c1ccccc1 (stereo unspecified)	inconclusive: -30.6% [cytotoxic]	
Cc1ccc2c(CN(C)Cc3ccccc3)cc(=O)oc2c1C		inconclusive [cytotoxic, full curve]
Cc1ccc(N(C(=O)Cc2c[nH]c3ccccc23)C(C(=O)NC2CCCCC2)c2ccco2)cc1 (stereo unspecified)		inconclusive [cytotoxic, single point]
Nc1nc2ccccc2n1CCOc1ccc(Cl)cc1		inconclusive [cytotoxic, single point]
CCOC(=O)c1c(C)[nH]c(C2=NNC(=Nc3ccccc3)SC2)c1C		inconclusive [cytotoxic, single point]
